The campaign covered roughly 310,000 compounds. About 2,200 (0.71%) showed an effect of 50% or more. The effect is printed as a negative number. The list shows a part of the results. Where a SMILES comes first, the peptide text is derived from it. The star is where a group is joined. Cbz = O=C(OCc1ccccc1)*; Boc = CC(C)(C)OC(=O)*
Biological target: human ether-à-go-go-related gene (hERG) potassium channel (human, UniProt Q12809)
Assay: primary screen, population patch clamp on CHO cells stably expressing hERG

Chain of human ether-à-go-go-related gene (hERG) potassium channel (Q12809 whole entry, looked up): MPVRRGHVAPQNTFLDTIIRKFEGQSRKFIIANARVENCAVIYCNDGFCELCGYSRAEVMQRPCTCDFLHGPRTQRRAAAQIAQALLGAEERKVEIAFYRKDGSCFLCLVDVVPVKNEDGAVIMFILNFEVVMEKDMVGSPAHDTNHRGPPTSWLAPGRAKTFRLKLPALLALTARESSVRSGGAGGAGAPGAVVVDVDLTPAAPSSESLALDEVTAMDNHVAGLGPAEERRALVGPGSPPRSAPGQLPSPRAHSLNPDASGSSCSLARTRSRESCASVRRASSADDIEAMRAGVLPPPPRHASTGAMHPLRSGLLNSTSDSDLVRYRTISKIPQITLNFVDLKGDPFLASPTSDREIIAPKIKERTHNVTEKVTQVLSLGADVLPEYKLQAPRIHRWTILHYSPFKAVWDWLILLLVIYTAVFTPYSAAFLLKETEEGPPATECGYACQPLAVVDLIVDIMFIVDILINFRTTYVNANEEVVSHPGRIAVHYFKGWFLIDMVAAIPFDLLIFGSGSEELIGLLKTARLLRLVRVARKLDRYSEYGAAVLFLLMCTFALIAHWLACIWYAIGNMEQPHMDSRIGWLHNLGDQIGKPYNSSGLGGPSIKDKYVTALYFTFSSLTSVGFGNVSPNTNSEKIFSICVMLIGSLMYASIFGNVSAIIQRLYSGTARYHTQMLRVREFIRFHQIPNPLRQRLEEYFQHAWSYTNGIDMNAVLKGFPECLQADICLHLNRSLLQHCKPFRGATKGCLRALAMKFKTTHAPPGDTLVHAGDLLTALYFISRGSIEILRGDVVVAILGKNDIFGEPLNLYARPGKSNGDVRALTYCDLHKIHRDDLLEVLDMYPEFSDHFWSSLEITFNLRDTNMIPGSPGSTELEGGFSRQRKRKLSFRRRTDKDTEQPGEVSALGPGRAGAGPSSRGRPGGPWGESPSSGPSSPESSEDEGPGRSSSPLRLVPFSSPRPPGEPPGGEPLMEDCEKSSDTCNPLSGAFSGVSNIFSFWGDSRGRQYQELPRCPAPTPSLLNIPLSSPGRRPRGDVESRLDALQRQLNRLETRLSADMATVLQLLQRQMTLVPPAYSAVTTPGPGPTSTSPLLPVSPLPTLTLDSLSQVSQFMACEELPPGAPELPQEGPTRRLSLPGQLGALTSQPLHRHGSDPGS

SMILES | hERG current change (%, negative = inhibition) at 1uM
COC(=O)c1ccc(Sc2ccccc2NS(=O)(=O)c2ccc(NC(C)=O)cc2)nc1 | -1.49%
N#CCCn1cc(C(CC(=O)c2ccc(Br)cc2)C(=O)O)c2ccccc21 (stereo not drawn) | 10.7%
CC1=NN(c2ccc(S(=O)(=O)O)cc2C)C(=O)C1 | 26.3%
COc1ccccc1OCC(=O)Nc1ccc(S(=O)(=O)N2CCCCCC2)cc1 | 7.07%
COCCn1c(SCC(=O)N2CCCc3ccccc32)nc2ccccc2c1=O | -22.5%
CCNC(=O)C12CCC(C)(c3nc4cc(C)c(C)cc4nc31)C2(C)C (stereo not drawn) | 2.34%
O=C(O)CN1C(=O)/C(=C/c2ccccc2Br)Oc2ccccc21 | 3.25%
COc1cc(S(=O)(=O)N(Cc2cccs2)CC2CCCO2)ccc1-n1cnnn1 (stereo not drawn) | -5.93%
Cc1ccc(S(=O)(=O)NCC2(c3ccccc3)CCOCC2)cc1 | 8.36%
CCCCC(CC)C(=O)Oc1ccc(O)c(C(C)(C)C)c1 (stereo not drawn) | 8.9%
COc1cc(/C=C/c2onc(C)c2[N+](=O)[O-])cc(OC)c1OC | 7.57%
CC(=O)c1ccc(OCC(O)CN2CCN(Cc3ccc4c(c3)OCO4)CC2)cc1.Cl (stereo not drawn) | -22.3%
Cc1cccc(C)c1NC(=O)CN1CCNCC1 | 5.44%
COc1ccc(OC)c2c(C)cc(N3CCN(C(=O)c4ccc(C)cc4)CC3)nc12 | 6.17%
COC(=O)/N=C/c1c(NCc2ccccc2)nc2c(C)cccn2c1=O | 13.5%
COc1ccc(C(=O)OC(C)C(=O)NC(C)CCc2ccccc2)c(OC)c1 (stereo not drawn) | 8%
Cc1cc(OC(C)C(=O)N2C[C@H]3C[C@@H](C2)c2cccc(=O)n2C3)c2c(C)c(C)c(=O)oc2c1 (stereo partly drawn) | 11.9%
CCn1cc(C2=NOC(C(=O)Nc3ccccc3C(=O)OC)C2)c(C)n1 (stereo not drawn) | -4.35%
CCN(CC)S(=O)(=O)c1cc(C(=O)Nc2cc(Cl)ccc2N2CCN(C)CC2)ccc1Cl | -3.74%
CCOc1ccc(OCC)c(NC(=O)C2CCCN(S(=O)(=O)c3c(C)n[nH]c3C)C2)c1 (stereo not drawn) | 10.1%
Nn1c(SCC(=O)Nc2ccc(S(N)(=O)=O)cc2)nnc1C(F)(F)F | 2.46%
COc1ccc(C(=O)Nc2ccc(C(=O)N3CCOCC3)cc2)cc1OC | 11.3%

SMILES | hERG current change (%, negative = inhibition) at 1uM
Cn1nnnc1SCC(=O)Nc1ccc(Oc2ccc(Cl)cc2)cc1 | 9.74%
O=[N+]([O-])c1ccc(/C=N/Nc2nc(N3CCCCCC3)nc(N3CCCCCC3)n2)o1 | 7.97%
CC1CCCN(S(=O)(=O)c2ccc3c(c2)c(=O)nc2ccccn23)C1 (stereo not drawn) | 18.1%
CCC(=O)N1CCN(c2ccccc2NC(=O)COc2cccc(C)c2C)CC1 | 11.8%
CC(=O)Oc1ccc(C(=O)Nc2ccccc2C(=O)N2CCCC2)cc1 | 17.8%
CCCOc1ccccc1-c1nc2c([nH]1)c(=O)[nH]c(=O)n2C | 5.15%
CC1CN(C(=O)CCC(=O)NCc2ccc(Cl)cc2)c2ccccc2O1 (stereo not drawn) | -9.24%
CC1(C)CC(=O)c2cnc(N3CCc4ccccc43)nc2C1 | 9.33%
CCOc1ccc(S(=O)(=O)Nc2cccc(C(=O)NCCCn3ccnc3)c2)cc1 | 14.8%
O=C(NCc1ccco1)c1n[nH]c(=O)c2ccccc12 | 11.8%
Cc1nc(CCNC(=O)Cc2ccc(F)cc2)cs1 | 17.5%
CC1CCN(C(=O)c2cc3ccccc3c(=O)o2)CC1 | 7.65%
Cn1c(N)c(C(=O)COc2ccc(Cl)cc2Cl)c(=O)n(C)c1=O | 12.3%
COC(=O)C1=C(C)NC(=O)NC1c1ccsc1 (stereo not drawn) | 5.08%
CC1CCC(NS(=O)(=O)c2ccc(N3CCCC3=O)cc2)CC1 (stereo not drawn) | 15.9%
COc1ccc(CC(=O)Nc2ccc(S(=O)(=O)Nc3nccc(C)n3)cc2)cc1 | -1.21%
CCCC(=O)OCC(=O)Nc1cc(Cl)ccc1[N+](=O)[O-] | 14.7%
CCOC(=O)c1cc(C(=O)NN)c(C)nc1C | 11.5%
CCN(CC)c1ncnc2c1cnn2C | 17.1%
CC(C)(C)OC(=O)NCCCC[C@H](NC(=O)[C@H](Cc1c[nH]c2ccccc12)NC(=O)OCc1ccccc1)C(=O)O (Cbz-Trp-Lys(Boc)-OH) | 18.1%
COC(=O)c1cc(C(=O)OC)cc(N2C(=O)CC(NNC(=O)c3ccccc3Br)C2=O)c1 (stereo not drawn) | 4.08%
Cc1ccc(N(CC(=O)NCc2ccccc2)C(=O)CCC(=O)Nc2ccccn2)cc1 | -11.1%

SMILES | hERG current change (%, negative = inhibition) at 1uM
CC(=O)Nc1ccc(S(=O)(=O)Nc2nc(C)nc3sc4c(c23)CCC4)cc1 | 7.61%
COc1ccccc1OCCSc1nnnn1-c1ccc(C)cc1 | 2.05%
Cc1coc(C)c1C(=O)CC1(O)C(=O)Nc2cc(Cl)cc(Cl)c21 (stereo not drawn) | 9.39%
CCOc1ccc(/C=N/NC(=O)c2ccccc2Cl)cc1CN1CC2CC(C1)c1cccc(=O)n1C2 (stereo not drawn) | 9.79%
O=C(CSc1nnnn1-c1cccc2ccccc12)N1CCOCC1 | -5.83%
CC(C)(C)n1ncc2c(=O)n(CC(=O)N3CCCc4ccccc43)cnc21 | 13.3%
COc1ccc(C2C(C(=O)/C=C/c3ccco3)=C(O)C(=O)N2CCN2CCOCC2)cc1 (stereo not drawn) | 11%
O=C(NC(=S)NC1CCSC1=O)c1cccs1 (stereo not drawn) | 14.2%
COc1ccc([N+](=O)[O-])cc1NC(=O)c1ccccc1N(C)S(C)(=O)=O | 7.36%
CCCCCCCCN1[C@@H](CC(=O)O)c2ccc(C(F)(F)F)cc2S1(=O)=O | 11.5%
CC(=O)c1cc(-c2nc3ccccc3n2C)n(C)c1 | 12%
CCCNC(=O)COC(=O)c1ccccc1C(=O)c1ccc(Cl)c([N+](=O)[O-])c1 | 14%
CC(C)CC(C(=O)O)C(C)CC(=O)Nc1ccn(-c2ccccc2)n1 (stereo not drawn) | -8.99%
Nc1nc(-c2cc3ccccc3o2)cs1 | 9.32%
CCC1=NN(C(=O)C(=O)Nc2ccc(OC)cc2)C(O)(C(F)(F)F)C1 (stereo not drawn) | -3.93%
N/N=C(\c1ccccc1)c1cc(Cl)ccc1N | 11.7%
COc1ccc(C(CNC(=O)c2ccc(OCc3c(C)noc3C)cc2)N2CCCC2)cc1 (stereo not drawn) | 7.88%
CN(c1cccc(NC(=O)c2cccc([N+](=O)[O-])c2)c1)S(C)(=O)=O | 18.1%
Cc1cccc2cc(C3CC(c4ccco4)=NN3S(=O)(=O)c3ccccc3)c(Cl)nc12 (stereo not drawn) | 2.74%
O=C(Nc1ccncc1)Nc1cccc(C(F)(F)F)c1 | 10.6%
N#Cc1ccc(NC(=O)COC(=O)c2ccc(F)c(S(=O)(=O)N3CCOCC3)c2)cc1 | -1.45%
COc1ccccc1OCC(=O)NCC1CCCN(Cc2cnn(C)c2C)C1 (stereo not drawn) | 9.1%

SMILES | hERG current change (%, negative = inhibition) at 1uM
CSCCC(NC(=O)c1ccccc1Cl)C(=O)OCC(=O)N1CCCC1=O (stereo not drawn) | 14.2%
COc1ccccc1NS(=O)(=O)c1cc(NC(=O)Nc2ccc(Cl)cc2Cl)ccc1N1CCCCC1 | 6.28%
O=C(COC(=O)c1ccccc1Nc1ccccc1)NCc1ccco1 | 4.36%
CCCNC(=O)c1ccc(N2CCC3(CC2)CC(c2ccccc2)=NO3)c(NC(=O)c2ccco2)c1 | -15.6%
COc1ccc2cc(C3(C)NC(=O)N(CC(=O)NCCC4=CCCCC4)C3=O)ccc2c1 (stereo not drawn) | -0.626%
COC(=O)[C@@H](CC(C)C)NS(=O)(=O)N(Cc1ccccc1)[C@@H](CC(C)C)C(=O)OC | 11.1%
O=[N+]([O-])C1=C(Nc2cccc3ccccc23)CS(=O)(=O)C1 | 8.5%
Cc1ccc2c(c1)cc1c(=O)n(CC(=O)N3CCC4(CC3)OCCO4)nc(C)n12 | 5.81%
COC(=O)CNc1nc(OC)nc(N(C)C)n1 | 10.7%
S=c1[nH]nc(-c2ccco2)n1-c1ccc(Br)cc1 | 14.3%
CC(C)CCNC(=O)CSc1nc2ccccc2c(=O)[nH]1 | 8.23%
O=C(Nc1cccnc1)c1ccc([N+](=O)[O-])o1 | 13.6%
O=C(CNC(=O)c1ccc(Cl)cc1)OCCN1C(=O)c2ccccc2C1=O | 5.68%
CC(=O)O.COc1ccc(N2C(=O)C(CC(N)=O)N(NC(=O)CCc3ccccc3)C2=O)cc1 (stereo not drawn) | 11.9%
O=C1NCCn2nc3ccccc3c21 | 18.3%
CC1(NC(=O)c2ccccc2)CCN(CCc2cccs2)C1=O (stereo not drawn) | 13.8%
Cc1cnc(C(=O)Nc2ccc(F)cc2)cn1 | 13.2%
CCOc1cc(N2CCOCC2)c(OCC)cc1NC(=O)COc1cccc(Cl)c1 | -0.225%
CCN1C(C)=C(C)S/C1=C1\SC(=S)N(N)C1=O | 10.8%
CCn1c(SCC(=O)Nc2cc(C)on2)nnc1-c1ccccc1 | 10.5%
CCCCCCCCC(=O)N/N=C(\C)c1ccc(O)cc1O | 1.66%

Reference: PMC4336329 (PLoS ONE, 2015)
